Results from the supplement of paper PMC8728848.
Some of the results follow.

Key:
Experiment in all cases: glycan array binding signal (z-score within array); higher = stronger binding
Details in all cases: glycan notation: IUPAC condensed, linker removed
[1] = target: Man(a1-2)Man(a1-3)[Man(a1-2)Man(a1-6)]Man
Outline: (§1)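 The Consortium for Functional Glycomics database supplied 3228 glycan arrays, of which those lacking an available protein sequence were dropped. The binding signal, a within-array Z-score, was averaged across arrays of the same protein sequence and across linkers. Negative scores can be read as non-binding.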

[2] = target: Man(a1-2)Man(a1-3)[Man(a1-2)Man(a1-6)]Man(a1-6)[Man(a1-2)Man(a1-2)Man(a1-3)]Man
Outline: as §1

[3] = target: Man(a1-2)Man(a1-3)[Man(a1-2)Man(a1-6)]Man(a1-6)[Man(a1-2)Man(a1-2)Man(a1-3)]Man(b1-4)GlcNAc(b1-4)GlcNAc
Outline: as §1

[4] = target: Man(a1-2)Man(a1-3)[Man(a1-6)]Man(a1-6)[Man(a1-2)Man(a1-3)]Man(b1-4)GlcNAc(b1-4)GlcNAc
Outline: as §1

[5] = target: Man(a1-2)Man(a1-6)[Man(a1-3)]Man(a1-6)[Man(a1-2)Man(a1-2)Man(a1-3)]Man
Outline: as §1

[6] = target: Man(a1-2)Man(a1-6)[Man(a1-3)]Man(a1-6)[Man(a1-2)Man(a1-2)Man(a1-3)]Man(b1-4)GlcNAc(b1-4)GlcNAc
Outline: as §1

Man(a1-3)[Man(a1-6)]Man = target: Man(a1-3)[Man(a1-6)]Man
Outline: as §1

[7] = target: Man(a1-3)[Man(a1-6)]Man(a1-6)[Man(a1-2)Man(a1-3)]Man(b1-4)GlcNAc(b1-4)GlcNAc
Outline: as §1

[8] = target: Man(a1-3)[Man(a1-6)]Man(a1-6)[Man(a1-3)]Man
Outline: as §1

[9] = target: Man(a1-3)[Man(a1-6)]Man(a1-6)[Man(a1-3)]Man(b1-4)GlcNAc(b1-4)GlcNAc
Outline: as §1

[10] = target: Man(a1-3)[Man(a1-6)]Man(b1-4)GlcNAc(b1-4)GlcNAc
Outline: as §1

[11] = target: Man(a1-3)[Man(a1-6)]Man(b1-4)GlcNAc(b1-4)[Fuc(a1-6)]GlcNAc
Outline: as §1

Man(a1-6)Man = target: Man(a1-6)Man
Outline: as §1

Man(b1-4)GlcNAc = target: Man(b1-4)GlcNAc
Outline: as §1

MurNAc(b1-4)GlcNAc = target: MurNAc(b1-4)GlcNAc
Outline: as §1

Neu5Ac(a2-3)Gal = target: Neu5Ac(a2-3)Gal
Outline: as §1

[12] = target: Neu5Ac(a2-3)Gal(b1-3)GalNAc
Outline: as §1

[13] = target: Neu5Ac(a2-3)Gal(b1-3)GalNAc(b1-3)Gal(a1-4)Gal(b1-4)Glc
Outline: as §1

[14] = target: Neu5Ac(a2-3)Gal(b1-3)GalNAc(b1-4)Gal(b1-4)Glc
Outline: as §1

[15] = target: Neu5Ac(a2-3)Gal(b1-3)GalNAc(b1-4)[Neu5Ac(a2-3)]Gal(b1-4)Glc
Outline: as §1

[16] = target: Neu5Ac(a2-3)Gal(b1-3)GalNAc(b1-4)[Neu5Ac(a2-8)Neu5Ac(a2-3)]Gal(b1-4)Glc
Outline: as §1

[17] = target: Neu5Ac(a2-3)Gal(b1-3)GalNAc6S
Outline: as §1

[18] = target: Neu5Ac(a2-3)Gal(b1-3)GlcNAc
Outline: as §1

[19] = target: Neu5Ac(a2-3)Gal(b1-3)GlcNAc(b1-2)Man
Outline: as §1

[20] = target: Neu5Ac(a2-3)Gal(b1-3)GlcNAc(b1-2)Man(a1-3)[GlcNAc(b1-4)][Neu5Ac(a2-3)Gal(b1-3)GlcNAc(b1-2)Man(a1-6)]Man(b1-4)GlcNAc(b1-4)GlcNAc
Outline: as §1

[21] = target: Neu5Ac(a2-3)Gal(b1-3)GlcNAc(b1-2)Man(a1-3)[Neu5Ac(a2-3)Gal(b1-3)GlcNAc(b1-2)Man(a1-6)]Man(b1-4)GlcNAc(b1-4)GlcNAc
Outline: as §1

[22] = target: Neu5Ac(a2-3)Gal(b1-3)GlcNAc(b1-2)[Neu5Ac(a2-3)Gal(b1-3)GlcNAc(b1-4)]Man(a1-6)[Neu5Ac(a2-3)Gal(b1-3)GlcNAc(b1-2)Man(a1-3)]Man(b1-4)GlcNAc(b1-4)GlcNAc
Outline: as §1

[23] = target: Neu5Ac(a2-3)Gal(b1-3)GlcNAc(b1-3)Gal(b1-3)GlcNAc
Outline: as §1

[24] = target: Neu5Ac(a2-3)Gal(b1-3)GlcNAc(b1-3)Gal(b1-4)GlcNAc
Outline: as §1

[25] = target: Neu5Ac(a2-3)Gal(b1-3)GlcNAc(b1-3)GalNAc
Outline: as §1

[26] = target: Neu5Ac(a2-3)Gal(b1-3)GlcNAc(b1-6)GalNAc
Outline: as §1

[27] = target: Neu5Ac(a2-3)Gal(b1-3)GlcNAc6S
Outline: as §1

[28] = target: Neu5Ac(a2-3)Gal(b1-3)[Fuc(a1-4)]GlcNAc
Outline: as §1

[29] = target: Neu5Ac(a2-3)Gal(b1-3)[Fuc(a1-4)]GlcNAc(b1-3)Gal(b1-3)[Fuc(a1-4)]GlcNAc
Outline: as §1

[30] = target: Neu5Ac(a2-3)Gal(b1-3)[Fuc(a1-4)]GlcNAc(b1-3)Gal(b1-4)[Fuc(a1-3)]GlcNAc
Outline: as §1

[31] = target: Neu5Ac(a2-3)Gal(b1-3)[GlcNAc(b1-6)]GalNAc
Outline: as §1

[32] = target: Neu5Ac(a2-3)Gal(b1-3)[Neu5Ac(a2-6)]GalNAc
Outline: as §1

B1: AFL5 (Aspergillus fumigatus), Q4WB00 (protein)
chain: MDNFMEMTKKLGHQPELLRLRALDATYDDALEGKLVVAPLDMSEPGKKILDSGTADGTWLRNVRSKQSVPHDYYGSDVEGELFPKDPDGITYFAHSFKDPWPQQYLGFFDLVHIRGSLAGSAPEGPAPVIQNLTTLLKPGGWVQLMEMNAFSPPPNGPAMTDFAKMASEMFTGIGVGDFANNNKSMLEDAGLKNVQEKRVIVNLGKKAKPELHDQSIHGVTGPIVPLTSVARTVKSSFTGEQLDALPARVKEELETEGGQVEMIIAFGQKA
[1]
  glycan array binding signal (z-score): -0.753
[2]
  glycan array binding signal (z-score): -0.413
[3]
  glycan array binding signal (z-score): -0.348
[4]
  glycan array binding signal (z-score): -0.906
[5]
  glycan array binding signal (z-score): -0.532
[6]
  glycan array binding signal (z-score): -0.225
Man(a1-3)[Man(a1-6)]Man
  glycan array binding signal (z-score): 0.203
[7]
  glycan array binding signal (z-score): 0.508
[8]
  glycan array binding signal (z-score): 0.01
[9]
  glycan array binding signal (z-score): -0.14
[10]
  glycan array binding signal (z-score): -0.485
[11]
  glycan array binding signal (z-score): 0.252
Man(a1-6)Man
  glycan array binding signal (z-score): 0
Man(b1-4)GlcNAc
  glycan array binding signal (z-score): -0.187
MurNAc(b1-4)GlcNAc
  glycan array binding signal (z-score): 0.25
Neu5Ac(a2-3)Gal
  glycan array binding signal (z-score): -0.081
[12]
  glycan array binding signal (z-score): -0.027
[13]
  glycan array binding signal (z-score): -0.212
[14]
  glycan array binding signal (z-score): -0.506
[15]
  glycan array binding signal (z-score): -0.331
[16]
  glycan array binding signal (z-score): 0.202
[17]
  glycan array binding signal (z-score): -0.456
[18]
  glycan array binding signal (z-score): 0.03
[19]
  glycan array binding signal (z-score): -0.697
[20]
  glycan array binding signal (z-score): -0.491
[21]
  glycan array binding signal (z-score): -0.136
[22]
  glycan array binding signal (z-score): 0.712
[23]
  glycan array binding signal (z-score): -0.729
[24]
  glycan array binding signal (z-score): -0.364
[25]
  glycan array binding signal (z-score): -0.226
[26]
  glycan array binding signal (z-score): 0.328
[27]
  glycan array binding signal (z-score): -0.33
[28]
  glycan array binding signal (z-score): -0.235
[29]
  glycan array binding signal (z-score): 0.57
[30]
  glycan array binding signal (z-score): -0.176
[31]
  glycan array binding signal (z-score): -0.184
[32]
  glycan array binding signal (z-score): -0.393
